The campaign covered roughly 360,000 compounds. About 7,500 (2.1%) were called active. This list was built around the results that the source calls inconclusive (neither active nor inactive); the mix of calls is not that of the screen. The call rests on the fitted dose curve; in most records, active means well fitted cell-killing curve with a large enough effect; inconclusive means small, poorly fitted or top-dose-only effect, or effect the other way, or another doubt; inactive means no such curve, though single readings can be large or run the other way. No potency is given beside an inconclusive call; the fits are too rough.
test: qHTS for induction of synthetic lethality in tumor cells producing 2HG: qHTS for the HT-1080-IDH1KD cell line; conditions: HT-1080 IDH1 knockdown viability, ATP luminescence, 48 h; activity, negative = toxicity: at 46.1 µM (top of the series) unless noted;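 on activity, negative = toxicity: 0% = DMSO wells and -100% = cell-free medium wells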
Summary of the method: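 Using the IDH1-knockdown HT-1080 line run in the same batch and compound series as the NT line, viability after 48 h at 37 °C was determined by CellTiter-Glo luminescence and expressed as % activity.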
Potency means the concentration at half of the fitted maximal effect; tags describe the fitted curve by direction and shape.

| SMILES | activity, negative = toxicity | Potency |
| --- | --- | --- |
| CCN(C=C1CC2C3CC=C4CC(O)CCC4(C)C3CCC2(C)C1=O)CC (configuration not stated) | inconclusive: -33.2% [cytotoxic] | – |
| O=C(Nc1ccc(F)cc1)Oc1ccc[nH]c1=O | – | active: 20.6 µM |
| N#CC1=C(N)C(C#N)(C#N)C(c2ccncc2)C2CN(C(=O)OCc3ccccc3)CC=C12 (configuration not stated) | – | active: 20.6 µM |
| c1ccc(-c2nnc(C3CC(c4cccnc4)=NO3)o2)cc1 (configuration not stated) | inactive: 12.7% | – |
| COC(=O)C1=C(c2cc3ccccc3s2)C[C@@H]2CC[C@H]1N2C(=O)NCc1ccc(F)cc1 | – | inconclusive [cytotoxic, partial curve] |
| Cc1cc2c(cc1C)NP(=S)(c1ccccc1)N2 | – | inconclusive [cytotoxic, single point] |
| CCN(CCCCOC(=O)c1ccc(OC)c(OC)c1)C(C)Cc1ccc(OC)cc1 (configuration not stated) | – | inconclusive [cytotoxic, single point] |
| Cc1c(-c2cccc(Cl)c2)nc2ccccc2c1C(=O)N1CCC2(CC1)OCCO2 | – | inconclusive [cytotoxic, single point] |
| COC(=O)C1=C(c2ccc(OCc3ccccc3)cc2)C[C@@H]2CC[C@H]1N2C(=O)NCc1ccc(F)cc1 | – | inconclusive [cytotoxic, single point] |
| CCCOP(=O)(OCCC)C(Nc1cccc(C(F)(F)F)c1)c1ccc(C)cc1 (configuration not stated) | – | inconclusive [cytotoxic, single point] |
| CC(C)(O)[C@H]1O[C@H]2CC[C@@]3(C)[C@@](O)(CC[C@H]4Cc5c([nH]c6ccccc56)[C@@]43C)C2=CC1=O | – | inconclusive [cytotoxic, partial curve] |
| O=C(c1ccccc1)C1NC1c1ccccc1 (configuration not stated) | inactive: 0.107% | – |
| Cn1c(O)c(C(=Nc2ccccc2)SCc2ccccc2Cl)c(=O)n(C)c1=O | – | active: 13 µM |
| NCCCCCC(=O)OC1N=C(c2ccccc2Cl)c2cc(Br)ccc2NC1=O (configuration not stated) | inactive: -8.29% | – |
| O=C(CN1CCOCC1)c1cccc2ccccc12 | inactive: 2.33% | – |
| CN(C)N=O | inactive: 3.07% | – |
| CC/C(=N\NC(=S)Nc1ccccc1)c1c(O)[nH]c(=O)[nH]c1=O | inactive: 16.8% | – |
| N=C(N)c1c(O)n(C2CCCCC2)c(=O)n(C2CCCCC2)c1=O | – | active: 20.6 µM |
| COc1cccc(C(=O)C2CCCN(Cc3ccc4nsnc4c3)C2)c1 (configuration not stated) | inactive: -2.16% | – |
| CNc1cc(Cl)c2nonc2c1[N+](=O)[O-] | – | active: 5.8 µM |
| C=CC[C@@H](CC/C=C/C=C/CC/C=C\[C@@H]1CSC([C@@H]2C[C@@H]2C)=N1)OC | – | active: 2.06 µM |
| CCCCCSc1cc(OC)c(CCN(C)C)cc1OC | – | inconclusive [cytotoxic, single point] |
| CCCCCn1c(=O)c(C(=O)NCc2ccc(Cl)cc2)c(O)c2ccccc21 | inactive: 0.489% | – |
| CCCCn1nnnc1C(CCc1ccccc1)N1CCC(n2c(=O)[nH]c3ccccc32)CC1 (configuration not stated) | – | inconclusive [cytotoxic, single point] |

| SMILES | activity, negative = toxicity | Potency |
| --- | --- | --- |
| CCOc1ccccc1-n1c(O)c(C=Nc2ccc(N(CC)CC)cc2)c(=O)[nH]c1=O | – | inconclusive [cytotoxic, single point] |
| O=[N+]([O-])c1ccc(N2CCCC(C(F)(F)F)C2)c2ccncc12 (configuration not stated) | – | inconclusive [cytotoxic, partial curve] |
| CCC(c1nnnn1Cc1ccccc1)N1CCC(n2c(=O)[nH]c3ccccc32)CC1 (configuration not stated) | – | inconclusive [cytotoxic, partial curve] |
| O=c1[nH]c(=O)n(Cc2ccccc2Cl)c(O)c1/C=C1/C=CC=N1 | – | active: 5.8 µM |
| COc1ccc(OC)c(C2C(C#N)=C(N)Oc3c2c(C)nn3-c2cccc(Cl)c2)c1 (configuration not stated) | – | inconclusive [cytotoxic, single point] |
| O=P1(c2ccccc2)Nc2ccccc2N1c1ccccc1 (configuration not stated) | inactive: -20.4% | – |
| O=C1NCN(c2ccccc2)C12CCN(C(c1nnnn1-c1ccc3c(c1)OCCO3)C1CC1)CC2 (configuration not stated) | – | inconclusive [cytotoxic, single point] |
| COC(=O)C1=C(c2c(C)noc2C)C[C@@H]2CC[C@H]1N2C(=O)N1CCC(O)(c2ccc(Cl)cc2)CC1 | inactive: 4.22% | – |
| O=P(NCc1ccccc1)(Oc1ccccc1)Oc1ccccc1 | inactive: -8.47% | – |
| COc1cc2c(c(OC)c1OC)-c1ccc(O)cc1[C@@H](NC(C)=O)CC2 | – | active: 0.0164 µM |
| CC(=NCCc1c[nH]c2ccccc12)c1c(O)n(Cc2ccccc2)c(=O)[nH]c1=O | – | inconclusive [cytotoxic, single point] |
| Cc1cccc(-n2c(O)c(/C=C3/C(c4ccccc4)=Nc4ccccc43)c(=O)[nH]c2=O)c1 | – | active: 5.8 µM |
| O=C(NCC1=C(c2ccc3ccccc3c2)C[C@@H]2CC[C@H]1N2Cc1ccco1)c1cccs1 | – | inconclusive [cytotoxic, single point] |
| CC(=O)OC1CCC2(C)C(=CC(=O)C3C2CCC2(C)C(OC(C)=O)CCC32)C1 (configuration not stated) | inactive: 8.12% | – |
| O=[N+]([O-])c1ccc(C(c2ccc([N+](=O)[O-])cc2)c2ccc([N+](=O)[O-])cc2)cc1 | – | inconclusive [cytotoxic, partial curve] |
| COc1ccc(-n2c(/C=C/c3ccc(O)cc3)nc3ccccc3c2=O)cc1 | – | inconclusive [cytotoxic, single point] |
| O=C1C(Br)C2CCC1C2C(=O)O (configuration not stated) | inactive: -3.96% | – |
| COc1cc2c(cc1O)C[C@H]1NCCc3cc4c(c-2c31)OCO4 | – | inconclusive [cytotoxic, partial curve] |
| CC(=O)N1N=C2C3CCN(CC3)C2C1c1ccc(F)cc1 (configuration not stated) | – | inconclusive [cytotoxic, partial curve, poor fit] |
| COC(=O)C1=C(c2cc3ccccc3s2)C[C@@H]2CC[C@H]1N2C(=O)NCc1ccc(C(F)(F)F)cc1 | – | inconclusive [cytotoxic, single point] |
| O=c1[nH]c2ccccc2n1C1CCN(C(CCc2ccccc2)c2nnnn2Cc2ccccc2)CC1 (configuration not stated) | – | active: 6.51 µM |
| CCCOP(=O)(c1ccccc1)c1ccccc1 | – | inconclusive [cytotoxic, single point] |
| CC(C)(C)NC(=O)CSc1nc(-c2ccccc2)c(-c2ccccc2)[nH]1 | – | inconclusive [cytotoxic, single point] |
| CC(C)n1c(=O)c(C=Nc2ccc(F)cc2)c(O)n(Cc2ccco2)c1=O | inactive: -3.07% | – |

| SMILES | activity, negative = toxicity | Potency |
| --- | --- | --- |
| O=C1CN=C(c2ccccc2)c2c(sc3c2CCCC3)N1 | – | active: 23.1 µM |
| CC(=O)c1cn(Cc2ccccc2C#N)c2ccccc12 | – | inconclusive [cytotoxic, full curve] |
| CC(=O)OC1C2(CC3N4C(=O)C5(CO)SSC4(CC31O)C(=O)N5C)OC(C)C(C)(C)C2=O (configuration not stated) | – | active: 0.58 µM |
| O=C1CC[C@@]2(O)[C@H]3Cc4ccc(O)c5c4[C@@]2(CCN3CC2CC2)[C@H]1O5 | inactive: 14.9% | – |
| O=C(OCC1OC(n2cnc3c(N(C(=O)c4ccccc4)C(=O)c4ccccc4)ncnc32)C(O)C1F)c1ccccc1 (configuration not stated) | – | inconclusive [cytotoxic, single point] |
| CC1(C)C(=O)CC[C@@]2(C)C1=CCC1C2CC[C@]2(C)C(=O)CCC12 (some centres not stated) | inactive: 13.5% | – |
| Cc1ccccc1-n1c(O)c(C=NCCN2CCOCC2)c(=O)[nH]c1=O | inactive: 7.41% | – |
| CC(=O)O[C@H]1[C@H]2O[C@]23[C@@H]2CC[C@]4(O)C[C@@H](O)CC[C@]4(C)C2CC[C@]3(C)[C@H]1c1ccc(=O)oc1 (some centres not stated) | – | active: 0.0146 µM |
| CCCCCCn1c(O)c(C(C)=NC)c(=O)[nH]c1=O | inactive: 4.84% | – |
| NC(=O)c1c(Br)n(C2OC(CO)C(O)C2O)c2ncnc(N)c12 (configuration not stated) | – | active: 7.31 µM |
| CCCOC(=O)c1ccc(-[n+]2c(-c3ccccc3)cc(-c3ccccc3)cc2-c2ccccc2)cc1 | – | active: 11.6 µM |
| CC12CCC(O)CC1CCC1C2CCC2(C)C(C3=CC(=O)OC3)CCC12O (configuration not stated) | – | active: 1.16 µM |
| CC(C)Oc1ccc(CNC(=O)Oc2ccccc2)cc1 | – | inconclusive [cytotoxic, partial curve] |
| CC(=O)O[C@]1(C)C(=O)OC/C2=C/CN(C)CCC(OC(=O)[C@@](O)(C(C)O)C[C@H]1C)C2=O (some centres not stated) | inactive: 19.3% | – |
| COc1ccc(C(=O)Oc2cccc3cccnc23)cc1S(=O)(=O)N1CCOCC1 | – | inconclusive [cytotoxic, single point] |
| C=CCc1cc(C=C2C(=O)N(C)C(=O)N(C)C2=O)cc(OCC)c1OCc1ccccc1 | – | inconclusive [cytotoxic, partial curve, poor fit] |
| CC[n+]1c(/C=C/N(C)c2ccccc2)sc2ccc(Cl)cc21 | – | inconclusive [cytotoxic, single point] |
| CCN(CC)c1ccc(C=C2C(=O)NC(=S)NC2=O)cc1 | – | inconclusive [cytotoxic, single point] |
| CN1CCc2cc(O)cc3c2[C@H]1Cc1ccc(O)c(O)c1-3 | – | active: 5.8 µM |
| CN1C(=O)/C(=C/c2ccc(Cl)s2)C(=O)NC1=S | – | inconclusive [cytotoxic, single point] |
| CCOC(=O)C(O)(c1ccc(NC(=O)Oc2ccccc2)cc1)C(F)(F)F (configuration not stated) | inactive: -1.41% | – |
| CCC1(OC(=O)CN)C(=O)OCc2c1cc1n(c2=O)Cc2cc3ccccc3nc2-1 (configuration not stated) | – | active: 0.731 µM |
| C=C1C(=O)OC2CC(C)C3C=CC(=O)C3(C)C(O)C12 (configuration not stated) | – | active: 0.82 µM |
| Cc1ccsc1C(=O)C1CCCN(Cc2ccc(-n3cccn3)cc2)C1 (configuration not stated) | – | inconclusive [cytotoxic, single point] |
